# Experimental data taken from the supplement of paper PMC8728848.
# Some of the results follow.
# B1: CSA (Cytisus scoparius), P29257 (protein)
# chain: SEELSFSFTKFKTDQKNLILQRDALITPTGKLQLTTVENGKPAAYSLGRALYSTPIHIWDKSTGDEASFATFFSFVISDAPNPSTAATDGLAFFLAPADTQPQSAGGYLGLFEKDSSYNSSNQIVAVEFDTYYNSAWDPQTNPHIGIDVNTIKSKKVSSWGFKNGNVATVLITYQPSSKSLVASLVYPSGQTSDKTSYIISANVDLKATVPEWVRIGFSATTGQTDNYIETHDILSWSFKSKLPATKN
# What was measured:
# Assay in all cases: glycan array binding signal (z-score within array); higher = stronger binding
# Conditions in all cases: glycan notation: IUPAC condensed, linker removed
# [1] = biological target: Gal(a1-3)Gal(b1-4)GlcNAc(b1-6)GalNAc
# In short: (§1)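 Glycan array data came from 3228 arrays in the Consortium for Functional Glycomics database, and only arrays with an available protein sequence were kept. Glycan names were put into IUPAC-condensed notation, and columns mapping to the same glycan were averaged. The binding signal is a within-array Z-score, averaged across arrays of one protein sequence run at different concentrations or buffers and across linkers. A negative Z-score can be read as non-binding.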
# [2] = biological target: Gal(a1-3)Gal(b1-4)[Fuc(a1-3)]GlcNAc
# In short: as §1
# [3] = biological target: Gal(a1-3)Gal(b1-4)[Fuc(a1-3)]GlcNAc(b1-2)Man(a1-3)[Gal(a1-3)Gal(b1-4)[Fuc(a1-3)]GlcNAc(b1-2)Man(a1-6)]Man(b1-4)GlcNAc(b1-4)GlcNAc
# In short: as §1
# Gal(a1-3)GalNAc = biological target: Gal(a1-3)GalNAc
# In short: as §1
# [4] = biological target: Gal(a1-3)[Gal(a1-4)]Gal(b1-4)GlcNAc
# In short: as §1
# [5] = biological target: Gal(a1-4)Gal(b1-3)GlcNAc(b1-2)Man(a1-3)[Gal(a1-4)Gal(b1-3)GlcNAc(b1-2)Man(a1-6)]Man(b1-4)GlcNAc(b1-4)GlcNAc
# In short: as §1
# Gal(a1-4)Gal(b1-4)Glc = biological target: Gal(a1-4)Gal(b1-4)Glc
# In short: as §1
# Gal(a1-4)Gal(b1-4)GlcNAc = biological target: Gal(a1-4)Gal(b1-4)GlcNAc
# In short: as §1
# [6] = biological target: Gal(a1-4)Gal(b1-4)GlcNAc(b1-2)Man(a1-3)[Gal(a1-4)Gal(b1-4)GlcNAc(b1-2)Man(a1-6)]Man(b1-4)GlcNAc(b1-4)GlcNAc
# In short: as §1
# [7] = biological target: Gal(a1-4)Gal(b1-4)GlcNAc(b1-3)Gal(b1-4)Glc
# In short: as §1
# Gal(a1-4)GlcNAc = biological target: Gal(a1-4)GlcNAc
# In short: as §1
# Gal(a1-6)Glc = biological target: Gal(a1-6)Glc
# In short: as §1
# Gal(b1-2)Gal = biological target: Gal(b1-2)Gal
# In short: as §1
# Gal(b1-3)Gal = biological target: Gal(b1-3)Gal
# In short: as §1
# Gal(b1-3)Gal(b1-4)GlcNAc = biological target: Gal(b1-3)Gal(b1-4)GlcNAc
# In short: as §1
# Gal(b1-3)GalNAc = biological target: Gal(b1-3)GalNAc
# In short: as §1
# [8] = biological target: Gal(b1-3)GalNAc(a1-3)[Fuc(a1-2)]Gal(b1-4)Glc
# In short: as §1
# [9] = biological target: Gal(b1-3)GalNAc(a1-3)[Fuc(a1-2)]Gal(b1-4)GlcNAc
# In short: as §1
# Gal(b1-3)GalNAc(b1-3)Gal = biological target: Gal(b1-3)GalNAc(b1-3)Gal
# In short: as §1
# [10] = biological target: Gal(b1-3)GalNAc(b1-3)Gal(a1-4)Gal(b1-4)Glc
# In short: as §1
# [11] = biological target: Gal(b1-3)GalNAc(b1-4)Gal(b1-4)Glc
# In short: as §1
# [12] = biological target: Gal(b1-3)GalNAc(b1-4)[Neu5Ac(a2-3)]Gal(b1-4)Glc
# In short: as §1
# Gal(b1-3)GlcNAc = biological target: Gal(b1-3)GlcNAc
# In short: as §1
# [13] = biological target: Gal(b1-3)GlcNAc(a1-3)Gal(b1-4)GlcNAc
# In short: as §1
# [14] = biological target: Gal(b1-3)GlcNAc(a1-6)Gal(b1-4)GlcNAc
# In short: as §1
# Gal(b1-3)GlcNAc(b1-2)Man = biological target: Gal(b1-3)GlcNAc(b1-2)Man
# In short: as §1
# [15] = biological target: Gal(b1-3)GlcNAc(b1-2)Man(a1-3)[Gal(b1-3)GlcNAc(b1-2)Man(a1-6)]Man(b1-4)GlcNAc(b1-4)GlcNAc
# In short: as §1
# [16] = biological target: Gal(b1-3)GlcNAc(b1-2)Man(a1-3)[Gal(b1-3)GlcNAc(b1-2)Man(a1-6)]Man(b1-4)GlcNAc(b1-4)[Fuc(a1-6)]GlcNAc
# In short: as §1
# [17] = biological target: Gal(b1-3)GlcNAc(b1-2)Man(a1-3)[GlcNAc(b1-4)][Gal(b1-3)GlcNAc(b1-2)Man(a1-6)]Man(b1-4)GlcNAc(b1-4)GlcNAc
# In short: as §1
# [18] = biological target: Gal(b1-3)GlcNAc(b1-2)[Gal(b1-3)GlcNAc(b1-6)]Man(a1-6)[Gal(b1-3)GlcNAc(b1-2)Man(a1-3)]Man(b1-4)GlcNAc(b1-4)GlcNAc
# In short: as §1
# [19] = biological target: Gal(b1-3)GlcNAc(b1-3)Gal(b1-3)GlcNAc
# In short: as §1
# [20] = biological target: Gal(b1-3)GlcNAc(b1-3)Gal(b1-4)Glc
# In short: as §1
# [21] = biological target: Gal(b1-3)GlcNAc(b1-3)Gal(b1-4)GlcNAc
# In short: as §1
# [22] = biological target: Gal(b1-3)GlcNAc(b1-3)Gal(b1-4)GlcNAc(b1-2)Man(a1-3)[Gal(b1-3)GlcNAc(b1-3)Gal(b1-4)GlcNAc(b1-2)Man(a1-6)]Man(b1-4)GlcNAc(b1-4)GlcNAc
# In short: as §1
# [23] = biological target: Gal(b1-3)GlcNAc(b1-3)Gal(b1-4)GlcNAc(b1-2)[Gal(b1-3)GlcNAc(b1-3)Gal(b1-4)GlcNAc(b1-6)]Man(a1-6)[Gal(b1-3)GlcNAc(b1-3)Gal(b1-4)GlcNAc(b1-2)Man(a1-3)]Man(b1-4)GlcNAc(b1-4)[Fuc(a1-6)]GlcNAc
# In short: as §1
# [24] = biological target: Gal(b1-3)GlcNAc(b1-3)Gal(b1-4)GlcNAc(b1-3)Gal(b1-4)GlcNAc(b1-2)[Gal(b1-3)GlcNAc(b1-3)Gal(b1-4)GlcNAc(b1-3)Gal(b1-4)GlcNAc(b1-6)]Man(a1-6)[Gal(b1-3)GlcNAc(b1-3)Gal(b1-4)GlcNAc(b1-3)Gal(b1-4)GlcNAc(b1-2)Man(a1-3)]Man(b1-4)GlcNAc(b1-4)[Fuc(a1-6)]GlcNAc
# In short: as §1
# [25] = biological target: Gal(b1-3)GlcNAc(b1-3)Gal(b1-4)GlcNAc(b1-6)[Gal(b1-3)GlcNAc(b1-3)]Gal(b1-4)Glc
# In short: as §1
# [26] = biological target: Gal(b1-3)GlcNAc(b1-3)Gal(b1-4)[Fuc(a1-3)]GlcNAc
# In short: as §1
binder,measurement,setting,value
B1,glycan array binding signal (z-score),[1],-0.188
same,glycan array binding signal (z-score),[2],-0.173
same,glycan array binding signal (z-score),[3],-0.162
same,glycan array binding signal (z-score),Gal(a1-3)GalNAc,-0.161
same,glycan array binding signal (z-score),[4],-0.124
same,glycan array binding signal (z-score),[5],-0.166
same,glycan array binding signal (z-score),Gal(a1-4)Gal(b1-4)Glc,-0.198
same,glycan array binding signal (z-score),Gal(a1-4)Gal(b1-4)GlcNAc,-0.176
same,glycan array binding signal (z-score),[6],-0.162
same,glycan array binding signal (z-score),[7],-0.093
same,glycan array binding signal (z-score),Gal(a1-4)GlcNAc,0.057
same,glycan array binding signal (z-score),Gal(a1-6)Glc,-0.176
same,glycan array binding signal (z-score),Gal(b1-2)Gal,-0.193
same,glycan array binding signal (z-score),Gal(b1-3)Gal,-0.173
same,glycan array binding signal (z-score),Gal(b1-3)Gal(b1-4)GlcNAc,-0.15
same,glycan array binding signal (z-score),Gal(b1-3)GalNAc,-0.159
same,glycan array binding signal (z-score),[8],-0.181
same,glycan array binding signal (z-score),[9],-0.251
same,glycan array binding signal (z-score),Gal(b1-3)GalNAc(b1-3)Gal,-0.169
same,glycan array binding signal (z-score),[10],0.019
same,glycan array binding signal (z-score),[11],-0.194
same,glycan array binding signal (z-score),[12],-0.062
same,glycan array binding signal (z-score),Gal(b1-3)GlcNAc,-0.128
same,glycan array binding signal (z-score),[13],-0.227
same,glycan array binding signal (z-score),[14],-0.212
same,glycan array binding signal (z-score),Gal(b1-3)GlcNAc(b1-2)Man,-0.197
same,glycan array binding signal (z-score),[15],-0.02
same,glycan array binding signal (z-score),[16],-0.106
same,glycan array binding signal (z-score),[17],-0.26
same,glycan array binding signal (z-score),[18],-0.212
same,glycan array binding signal (z-score),[19],-0.001
same,glycan array binding signal (z-score),[20],-0.178
same,glycan array binding signal (z-score),[21],-0.221
same,glycan array binding signal (z-score),[22],-0.157
same,glycan array binding signal (z-score),[23],-0.108
same,glycan array binding signal (z-score),[24],-0.13
same,glycan array binding signal (z-score),[25],-0.221
same,glycan array binding signal (z-score),[26],-0.163
